Whole data set: some 4,500 sequences, median “median log2 fold change of GCK-ALFA target abundance (FLAG IP / Myc IP barcode read proportion)” near 0.078, cut for the lowest 2% near -0.6. Some of the results follow.

This is an account of results in the supplement of paper PMC12632987.

B1: GBRAP_96_7095 (protein)
chain: MLEEAKKLVKELIKALDTDPEKAEELAKKLLEFPVEVVTEALVEVVKKPEDAAKIAKLLLKLGDEKAEEVLLEAAEKAPGDISKAIIDAMEAYEKEQEAA
B2: GBRAP_11_2867 (protein)
chain: KKEELKKAAELAKEAIELLKKLLKEGVDNKELRKKIKELLKELIELLKKYGDESDAKIAEIALEDLKKAEEDPENAKEYVERALAALRVLYGNLLLRIDE
B3: GBRAP_95_7054 (protein)
chain: EDDRLAFEDHVEATDAAVELGDEEAARRHAARAVALFAAGGPLPFPKGISLEAAKLILAEAHRTADPATQAALLAEILAAAATEEDKAALRAHYAALLAA
B4: GBRAP_52_6314 (protein)
chain: MSERMEELARRLLELMLAGDEEGARALIRELVKTLSEEELLLLAEELARLAKTLDAEGLDALARLLELIEDEMEEEGVDERIIAEIRGIIITAIYEAEQR
B5: GBRAP_74_6505 (protein)
chain: SEEMLKKLEEAIKKGDLLKAAKITIEILKNGSKEDAKKAMELLAKAVKENYEKVDLETAEAALEAIVLAESKFEEEEFTDEMLELLKLVTEKLLELEKKK
B6: GBRAP_11_2878 (protein)
chain: KKEKLLEIAELAEKLAELIEKLLKEGVDNEELLKEAEEQLKKLKELVEKHANEALKKLAKILEEEWKKMLEDKENAEEHAKRALAIARVLAGDARLEAEE
B7: GBRAP_39_5630 (protein)
chain: EEEEELELLESLAEADLAKREVETGLPAEELYAELLARAREAAADDPELLALIERLAALAEEHGPEARERLAAAMAAYLAGLPKEDIKRLLTALIEELEA
B8: GBRAP_128_3263 (protein)
chain: MNEEVVAYANSVVEQIKNSDKATAQKIADEFMEWLLNSSLEDAEQAVDVVISNLSKLTAEQLDILADAARKHRPKATPEKANLLADLEVEALNEALEKEE
B9: GBRAP_14_3818 (protein)
chain: MEELKAKIKEVLEELREELVEDIGLDEEEVTELIDRALAEIFAALDDPEGAEERVQEIFDRLRKEIEALAAKLGEDEAAAARALVVDAEYEVDELIEEAK
B10: GBRAP_96_7090 (protein)
chain: MLEEVKELVRGFLEALNTDPEKARELAKELLKYPPELVAKAMKELGVSDEEAVALFEVLYEEDPSKAAEWIEALTEIVSSEAVVRMVEVAIELERAREAA
B11: GBRAP_83_6933 (protein)
chain: AEKITVVANSDTLEEAFKIAIDLHKEEGKEVILEVSITREDIPKLLKEFEKVAKAGVNIELEILLTGATEEEAKELKEKLLAIAKKYGVKAKVTVELVEP
B12: GBRAP_26_5494 (protein)
chain: MVEEILAELRARIREILADESPELQAAVIAEAEDLLLEAHEYFEENLDDEEAQEKAIEEAVEEMREFLEDMGLSEEKIEKITEALREAMERILEALQKER
B13: GBRAP_83_6963 (protein)
chain: MEEVVVVTTKDHVESAADAAYDLATEEGKKVTVVLLGKPEEVLESAEIVAKKLKDIKNVEIEAVVENVRKEEAEKTKKKLKEIGEKYGLKIKFEAELIEE
B14: GBRAP_166_4926 (protein)
chain: SMEEKVEEAKERLKKVIEEGKADPSKTKAEITVDLAYETAKILEEEDDKETKLEIVRAALKLAKEAGLDPERLATLTASLAGFDDEEIEEIDKIVEEILK
B15: GBRAP_80_6767 (protein)
chain: MEEKIKKKIEEIEKIDKEIAEVLKKAVEVAKELGISEEDILEFVEAILELAKIDKEKALEITKEGLKALEEAKKEGDKERAKAELAGFISDALLEVEELE
B16: GBRAP_35_5519 (protein)
chain: SSEELEVEMLVATIEDLTLAVPDMPVEQAAQIANQLIEHAKRLAEDVKDNVEALKRLRDALERLRDALEKHYGDNPLAQEVIARIDELIAYIDKLIEEAE
B17: GBRAP_52_6216 (protein)
chain: MEEEIEKVAKEIAEALIAGDEKKLIELVKEAKEKFNLEELEKIAALMGRILAERLKGDEERIVELIDRFEEAALKAGLSEDDALALEGAAEAAAIKTLLA
B18: GBRAP_80_6804 (protein)
chain: AEAELAAALAEIAALDPELAERVRRIIERARALGVPLETLAEYARAVAALLKVDPERARELVEELEEELAEEAAAGDTANAEATLRVYAGDALLEVEELE
B19: GBRAP_184_5309 (protein)
chain: TVLRREIEADNAEEAIAQIRAAAAEARAAGARLELDLYLSNVDVEGARRIFALLAALRAEGVLAAATVAVLDERTEEEVDELVALADEAGVRLVVALSDE

GABARAP, O95166, sequence (O95166 whole entry, the tested form may be a part): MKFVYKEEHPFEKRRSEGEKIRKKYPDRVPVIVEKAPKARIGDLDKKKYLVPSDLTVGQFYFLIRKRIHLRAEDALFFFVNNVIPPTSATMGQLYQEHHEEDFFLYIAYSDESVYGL

The test addresses GABARAP, O95166. Put plainly: median log2 fold change of GCK-ALFA target abundance (FLAG IP / Myc IP barcode read proportion) (log2 ratio); each designed protein is fused to an ALFA-tag nanobody in HEK293 cells to bring the named protein to FLAG-tagged glucokinase (GCK); Myc marks an untargeted standard; higher = target protein stabilised (more abundant). The settings on record: target protein: 3xFLAG-MCP-GCK-ALFA reporter; HEK293 landing pad (RPLP). The gist of the method: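 Binders fused to an ALFA nanobody were recombined as a library into HEK293 landing-pad cells, which were induced with 2 μg mL^−1 doxycycline and then transfected to express a FLAG-tagged target and a Myc-tagged standard. After 48 h, circular RNA barcodes recovered by anti-FLAG and anti-Myc immunoprecipitation of lysates were reverse transcribed, amplified and sequenced. Each binder's target abundance is the median log2 ratio of FLAG to Myc barcode read proportions, from barcodes present at ≥10^−7 in both replicates, binders carrying ≥3 barcodes per replicate, a 10^−6 pseudocount and pooled replicates.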
As for B1, the “median log2 fold change” value was 0.344.
The result for B2 reads 0.253; that for B3, 0.269.
With B4, the “median log2 fold change” value is -0.236.
As to B5, the “median log2 fold change” value was 0.0468.
For B6, the “median log2 fold change” value is 0.36.
As to B7, the “median log2 fold change” value was determined as 0.159.
For the molecule B8, the “median log2 fold change” value is 0.00415.
B9: the “median log2 fold change” value was -0.0751.
With B10, the “median log2 fold change” value came out at 0.0668.
Regarding B11, the “median log2 fold change” value is 0.179.
The result for B12 reads -0.225; that for B13, 0.0181.
Regarding B14, the “median log2 fold change” value came to 0.0535.
For B15, the “median log2 fold change” value came to 0.229.
In the case of B16, the “median log2 fold change” value was found to be 0.118.
Under B17 stands 0.049.
Take B18: the “median log2 fold change” value is -0.231.
Turning to B19, the “median log2 fold change” value is -0.372.
